# Measurements taken from patent US8722622B2, “FGF21 conjugates and anti-diabetic uses thereof” (COVX Technologies Ireland, Limited, priority 2010, dated 2014).
# What was measured:
# [1] = parameters: species or system Swiss-Webster mice; conditions: mouse, in vivo
# Experimental: The PK of FGF21 antibody conjugates were examined in mice after IV or SC administration. […] Antibody conjugates concentrations in serum were determined using an ELISA which captured the FGF21 portion of the antibody conjugates through a monoclonal anti-hFGF21 antibody bound to a 96-well plate. FGF21 antibody conjugates bound to the plate were detected through an anti-hFc monoclonal antibody, and concentrations were determined using a standard curve of the PK dosing solution diluted into serum-containing assay buffer. SC bioavailability was calculated as the ratio of the area-under the curve (AUC) of the SC serum concentration profile divided by the AUC of the IV serum concentration profile.
# [2] = test system: ob/ob mice; test: Mouse efficacy in ob/ob mice (OGTT, body weight, liver, gene expression); type: in vivo
# Experimental: (§1) The efficacy of FGF21 antibodies conjugates was evaluated in two murine obese insulin resistant models—ob/ob mice and high-fat diet-induced obese mice. For both models, male mice (6-8 weeks of age for ob/ob, 12-14 weeks of age for DIO with high-fat diet initiated at 6 weeks of age) were housed 2-4/cage and FGF21 antibody conjugates were administered by SC injection. Body weight was measured daily in the morning. Glucose tolerance was assessed by oral glucose tolerance test. Briefly, mice were fasted for 4-5 hrs in the morning of the day of testing. A basal blood sample was obtained and blood glucose levels were determined using a portable glucometer. Following basal sample, glucose was administered by oral gavage, and blood samples were drawn from 15 to 120 mins thereafter.
# (§2) For […] expression, frozen visceral WAT samples collected from the in vivo efficacy studies were homogenized. Total RNA was extracted from the tissue homogenates, and Glut1 and GAPDH mRNA expression was measured using a Quantitect Probe RT-PCR kit and running a quantitative real time PCR reaction in a Taqman machine (Applied Biosystems). The effect of treatment was determined by a fold change in Glut1 mRNA levels normalized by the GAPDH mRNA levels from each sample.
# [3] = test system: ob/ob mice; test: Hyperinsulinemic euglycemic clamp; type: in vivo; conditions: SC 10 mg/kg twice a week for one week
# Experimental: The dosing volume was 2 mL/kg per injection. Ab-FGF21ΔH-A129C was injected on day 2 and 5 of the study. Vehicle (30 mM acetate buffer pH4.8) was administered twice a week at a dosing volume of 2 mL/kg per injection on day 2 and day 5 of the study. Mice were treated with ketprofen 2 mg/kg SC and ampicillin 100 mg/kg SC immediately before surgery. Animals (n=8 per group) were randomized according to their day 1 fasted plasma glucose and body weight.
# On day 7 of the study, mice were fasted for 16 hrs before the clamp procedure on day 8. On day 8 catheters were exteriorized and animals connected to the infusion lines. 90 mins before the start of the clamp procedure (−90 min), a 6 μCi bolus of [3-3H] glucose was injected into the jugular vein followed by a 0.1 μCi/min constant infusion until the end of the clamp. Blood was collected at −10 min and 0 min for the determination of basal HGP. At time 0 min the variable glucose infusion (50% dextrose) as well as the constant infusion of insulin 20 mU/kg/min was started. Plasma glucose was measured every 10 min from the tail vein and glucose infusion rates were adjusted according to each animals glucose level until a steady state was reached. At time points 170 min and 180 min blood was collected to determine hepatic glucose production (HGP) under clamped conditions. During the clamp procedure, animals were unrestrained and conscious.
# Hepatic Glucose Production (HGP) was calculated using the following formula:
# HPG=Ra−Rate of cold glucose infusion, where
# [4] = test system: DIO mice; test: Mouse efficacy in high-fat diet-induced obese (DIO) mice; type: in vivo
# Experimental: as §1, §2
# [5] = test system: Glut1 mRNA expression in differentiated 3T3-L1 adipocytes; test: Glut1 Taqman assay; type: cell-based; conditions: 6 hrs
# Experimental: Differentiated 3T3-L1 adipocytes were used to measure the Glut1 mRNA expression by qPCR method. Overnight serum starved day 10-14 differentiated 3T3-L1 adipocytes were treated with compounds for 6 hrs. Total RNA was extracted from these cells, and Glut1 and GAPDH mRNA expression was measured using a Quantitect Probe RT-PCR kit and running a quantitative real time PCR reaction in a Taqman machine (Applied Biosystems®). The bioactivity of the compounds was determined by a fold change in Glut1 mRNA levels normalized by the GAPDH mRNA levels from each sample. EC50 values as measurements of the potency of the compounds were obtained from the dose response curves in the assay.
# 3T3-L1 adipocytes were seeded at day 8 in 24-well tissue culture plates (Falcon®, Cat#353047), and incubated in DMEM complete medium (10% FBS, 2 mM L-glutamine, 1% P/S) at 37° C., 5% CO2. […] The medium was aspirated, and then RNA extracted from the cells using the RNeasy mini Kit according to the manufacturer's instructions. RNA was measured at A260 nm using the Spectramax® Plus spectrophotometer.
# [6] = Serum drug levels in ob/ob model; type: in vivo; conditions: ob/ob mice, 10 mg/kg and 3 mg/kg
molecule,measurement,setting,value
Ab-L1-FGF21ΔH-D79C: FGF21ΔH-D79C combined with L1 at D79C and conjugated with h38C2 (conjugate) heavy: EVQLVESGGGLVQPGGSLRLSCAASGFTFSNYWMSWVRQSPEKGLEWVSEIRLRSDNYATHYAESVKGRFTISRDNSKNTLYLQMNSLRAEDTGIYYCKTYFYSFSYWGQGTLVTVSSASTKGPSVFPLAPSSKSTSGGTAALGCLVKDYFPEPVTVSWNSGALTSGVHTFPAVLQSSGLYSLSSVVTVPSSSLGTQTYICNVNHKPSNTKVDKRV[gap - human IgG1 Fc] light: ELQMTQSPSSLSASVGDRVTITCRSSQSLLHTYGSPYLNWYLQKPGQSPKLLIYKVSNRFSGVPSRFSGSGSGTDFTLTISSLQPEDFAVYFCSQGTHLPYTFGGGTKVEIKRTVAAPSVFIFPPSDEQLKSGTASVVCLLNNFYPREAKVQWKVDNALQSGNSQESVTEQDSKDSTYSLSSTLTLSKADYEKHKVYACEVTHQGLSSPVTKSFNRGEC PIPDSSPLLQFGGQVRQRYLYTDDAQQTEAHLEIREDGTVGGAADQSPESLLQLKALKPGVIQILGVKTSRFLCQRPCGALYGSLHFDPEACSFRELLLEDGYNVYQSEAHGLPLHLPGNKSPHRDPAPRGPARFLPLPGLPPAPPEPPGILAPQPPDVGSSDPLSMVGPSQGRSPSYAS,IV T½,"[1]; iv, 3 mg/kg",19 h
same,SC half-life,[1]; sc,20 h
same,body weight gain,[2],reduce body weight gain
same,glucose tolerance,[2],improve glucose tolerance
same,Mean Glucose AUC (% of vehicle control),"[2]; OGTT day 6, SC 10 mg/kg on day 0 & 3",53 % of vehicle control
same,Mean Glucose AUC (% of vehicle control),"[2]; OGTT day 6, SC 10 mg/kg on day 3",53 % of vehicle control
same,Mean Glucose AUC (% of vehicle control),"[2]; OGTT day 6, SC 10 mg/kg on day 5",87 % of vehicle control
same,Mean Glucose AUC (% of vehicle control),"[2]; OGTT day 6, SC 10 mg/kg on day 6",67 % of vehicle control
same,mean glucose AUC % during OGTT,[2]; single dose 2 mg/kg (FIG. 6B),86%
same,"Cumulative body weight change, mean body weight",[2]; single dose 10 mg/kg (FIG. 6A),1.4 g
"Ab-L1-FGF21ΔH-A129C: h38C2 antibody, each arm linked through K99 of SEQ ID NO:26 to L1, each L1 conjugated to Cys129 of SEQ ID NO:9 (conjugate, listed as Homo sapiens, FGF21 linked via L1 linker to K99 of each arm) heavy: ELQMTQSPSSLSASVGDRVTITCRSSQSLLHTYGSPYLNWYLQKPGQSPKLLIYKVSNRFSGVPSRFSGSGSGTDFTLTISSLQPEDFAVYFCSQGTHLPYTFGGGTKVEIKRTVAAPSVFIFPPSDEQLKSGTASVVCLLNNFYPREAKVQWKVDNALQSGNSQESVTEQDSKDSTYSLSSTLTLSKADYEKHKVYACEVTHQGLSSPVTKSFNRGEC light: EVQLVESGGGLVQPGGSLRLSCAASGFTFSNYWMSWVRQSPEKGLEWVSEIRLRSDNYATHYAESVKGRFTISRDNSKNTLYLQMNSLRAEDTGIYYCKTYFYSFSYWGQGTLVTVSSASTKGPSVFPLAPSSKSTSGGTAALGCLVKDYFPEPVTVSWNSGALTSGVHTFPAVLQSSGLYSLSSVVTVPSSSLGTQTYICNVNHKPSNTKVDKRV[gap - human IgG1 Fc] PIPDSSPLLQFGGQVRQRYLYTDDAQQTEAHLEIREDGTVGGAADQSPESLLQLKALKPGVIQILGVKTSRFLCQRPDGALYGSLHFDPEACSFRELLLEDGYNVYQSEAHGLPLHLPGNKSPHRDPCPRGPARFLPLPGLPPALPEPPGILAPQPPDVGSSDPLSMVGPSQGRSPSYAS",effect on body weight,[3],did not demonstrate an effect on body weight
same,effect on fasted plasma glucose,[3],no effect on fasted plasma glucose levels
same,hepatic glucose production under clamped (hyperinsulinemic) conditions,[3],significantly suppressed HGP
same,basal hepatic glucose production,[3]; basal,did not alter basal hepatic glucose production
same,glucose infusion rate (GIR) vs vehicle,[3]; clamp,significantly increased the glucose infusion rate
same,liver weight,[4],decreased liver weight
same,EC50,"[5]; 3T3-L1 adipocytes, Taqman quantitative real-time PCR, read-out: Glut1 RNA expression EC50",1.72 nM
same,Glut1 induction in 3T3-L1 adipocytes,[5],dose-dependent Glut1 induction
same,"serum levels 3, 4, 5 and 6 days post-dose",[6],well maintained
H125C (conjugate) heavy: EVQLVESGGGLVQPGGSLRLSCAASGFTFSNYWMSWVRQSPEKGLEWVSEIRLRSDNYATHYAESVKGRFTISRDNSKNTLYLQMNSLRAEDTGIYYCKTYFYSFSYWGQGTLVTVSSASTKGPSVFPLAPSSKSTSGGTAALGCLVKDYFPEPVTVSWNSGALTSGVHTFPAVLQSSGLYSLSSVVTVPSSSLGTQTYICNVNHKPSNTKVDKRV[gap - human IgG1 Fc] light: ELQMTQSPSSLSASVGDRVTITCRSSQSLLHTYGSPYLNWYLQKPGQSPKLLIYKVSNRFSGVPSRFSGSGSGTDFTLTISSLQPEDFAVYFCSQGTHLPYTFGGGTKVEIKRTVAAPSVFIFPPSDEQLKSGTASVVCLLNNFYPREAKVQWKVDNALQSGNSQESVTEQDSKDSTYSLSSTLTLSKADYEKHKVYACEVTHQGLSSPVTKSFNRGEC PIPDSSPLLQFGGQVRQRYLYTDDAQQTEAHLEIREDGTVGGAADQSPESLLQLKALKPGVIQILGVKTSRFLCQRPDGALYGSLHFDPEACSFRELLLEDGYNVYQSEAHGLPLHLPGNKSPCRDPAPRGPARFLPLPGLPPAPPEPPGILAPQPPDVGSSDPLSMVGPSQGRSPSYAS,IV T1/2,[1]; iv,37 h
same,% SC BioAv,[1]; sc,67%
same,SC T1/2,[1]; sc,32 h
